# ± gives the standard deviation of the averaged measurements. The full ranking holds about 33,000 sequences; the median of “E-score (dimensionless, -0.5 to 0.5)” is about -0.049, and the highest 2% start at about 0.37. Some of the results follow.
# Test system: T1, PmTbr T-box DNA-binding domain (GST fusion)
# T1 sequence: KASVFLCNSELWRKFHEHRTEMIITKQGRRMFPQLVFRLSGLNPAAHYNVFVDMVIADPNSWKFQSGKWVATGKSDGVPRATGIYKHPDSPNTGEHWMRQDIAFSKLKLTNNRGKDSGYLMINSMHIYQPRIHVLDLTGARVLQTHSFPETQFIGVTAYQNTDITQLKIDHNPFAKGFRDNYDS
# Assay: PBM E-score of 8-mer (E-score (dimensionless, -0.5 to 0.5)); Tbr is Tbrain of the sea star Patiria miniata (Pm) or the sea urchin Strongylocentrotus purpuratus (Sp); higher = stronger binding preference; most listed sequences are background and not binding sites
# Conditions: the construct has about 5 more residues each side
# Summary of the method: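 Expression of GST-fused Tbr T-box DNA-binding domains, each holding the full T-box plus roughly five flanking residues, was carried out in BL21 E. coli at 20 °C, with purification by glutathione affinity chromatography. Universal Agilent arrays made double-stranded by primer extension were incubated with the protein at 200 nM in PBS (pH 7.5), then scanned and quantified. All ungapped 8-mers were scored from probe intensities, and each received an enrichment E-score from the Universal PBM Analysis Suite, averaged over duplicate arrays.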
row,Sequence,PBM E-score of 8-mer
1,ACAGTTTG,0.106 ± 0.011
2,ATTTTGAG,-0.191 ± 0.09
3,CGGTCACC,0.0508 ± 0.043
4,AGCGGGCA,0.0308 ± 0.016
5,CAAGCCAG,-0.2392 ± 0.0017
6,AGCCTATC,-0.2 ± 0.016
7,CAAATGGA,-0.0686 ± 0.065
8,ACTGTACG,-0.0583 ± 0.012
9,ATAACGTG,0.2268 ± 0.0011
10,ACACTGGT,0.0876 ± 0.027
11,AATCCACC,-0.216 ± 0.013
12,CCGTACAA,-0.184 ± 0.043
13,CGAGCCAG,-0.153 ± 0.009
14,GCTCCATA,-0.361 ± 0.024
15,CGTGCTCC,-0.172 ± 0.017
16,ACCCCGGG,0.0177 ± 0.028
17,ATTATCGG,0.0166 ± 0.099
18,GGGAGTCA,-0.0598 ± 0.063
19,GACAGAAC,-0.14 ± 0.039
20,ACCCCATG,-0.00548 ± 0.12
21,CTGCAAGA,-0.256 ± 0.017
22,ATAACCAT,-0.0901 ± 0.022
23,CAAAGAAA,-0.244 ± 0.039
24,TTCCGGAA,-0.287 ± 0.0082
25,GACTCTCC,-0.183 ± 0.018

row,Sequence,PBM E-score of 8-mer
1,AAATCCGT,-0.0563 ± 0.063
2,GACTGACA,0.142 ± 0.069
3,AGAGTCCA,-0.0367 ± 0.066
4,ATTCGGTG,0.139 ± 0.074
5,AAGCTACT,-0.00821 ± 0.04
6,ACCTTGCG,0.327 ± 0.013
7,CTACCGGC,-0.0673 ± 0.0053
8,GTAAGACA,-0.05851 ± 0.00017
9,TATTTAAA,-0.166 ± 0.056
10,AGTTCCAA,-0.116 ± 0.037
11,AATTGCAC,0.186 ± 0.0071
12,CGTACTGC,-0.107 ± 0.057
13,GGGACCGA,-0.172 ± 0.032
14,GGTATTAC,-0.137 ± 0.093
15,AAACAAGG,-0.00432 ± 0.0069
16,AATACCCA,-0.157 ± 0.13
17,ATCCATTC,-0.2794 ± 0.0019
18,AAAGCGAA,-0.0477 ± 0.069
19,CATTGGGG,-0.0156 ± 0.035
20,CAGGGTTC,0.0231 ± 0.012
21,AGTCTAGG,-0.158 ± 0.038
22,AGGGGCAA,-0.0624 ± 0.058
23,AAGTGATG,0.28 ± 0.0076
24,AGTGTTGA,0.395 ± 0.022
25,GCACCGAA,-0.0219 ± 0.025

row,Sequence,PBM E-score of 8-mer
1,AATTCGAG,-0.0627 ± 0.075
2,ATCCTTGG,-0.274 ± 0.093
3,AGAAAAAA,0.0449 ± 0.1
4,CCATTTAA,-0.0227 ± 0.027
5,CACTCAGC,0.109 ± 0.053
6,AACTCGTC,0.133 ± 0.0068
7,ACTTCTCG,0.226 ± 0.052
8,AAGACTGT,-0.122 ± 0.058
9,GGATTCGA,-0.122 ± 0.025
10,AAGTTGAG,0.0749 ± 0.065
11,CAGGTCGA,0.13 ± 0.0056
12,ACGAAACC,-0.107 ± 0.018
13,CGCGATGC,0.0992 ± 0.017
14,CATATCGG,-0.111 ± 0.0044
15,AGTTCCCA,-0.094 ± 0.026
16,AGGGTCCG,-0.126 ± 0.01
17,ACAGGTGA,0.406 ± 0.0049
18,CTTCTCCA,-0.194 ± 0.0031
19,CAAATATA,-0.177 ± 0.054
20,CAGGACGC,0.0118 ± 0.05
21,TGTGTCAA,0.372 ± 0.014
22,CAGGGGGC,-0.132 ± 0.031
23,AGCGGTAG,-0.0161 ± 0.021
24,GCCCGCGA,0.113 ± 0.04
25,AAAATCGG,-0.165 ± 0.057

row,Sequence,PBM E-score of 8-mer
1,ACCTGTAT,0.168 ± 0.011
2,GTCCTGGA,-0.342 ± 0.065
3,CCGCGTTC,-0.0663 ± 0.0095
4,GACGATGA,-0.0998 ± 0.004
5,GACGTTTA,-0.111 ± 0.014
6,CTGTCTAC,0.0533 ± 0.045
7,GAAAAATC,0.17 ± 0.077
8,ACTGGCCG,-0.033 ± 0.03
9,AGGATGTA,-0.1063 ± 0.00074
10,CGTAGAAC,-0.133 ± 0.028
11,ATAGAAGC,-0.294 ± 0.13
12,ACAATCTC,0.202 ± 0.036
13,AACTCACC,0.0059 ± 0.011
14,CAGTACCG,-0.1169 ± 0.00046
15,TAAGCAAA,-0.122 ± 0.044
16,GTTTGAGA,-0.0765 ± 0.072
17,GCAACGGA,-0.0777 ± 0.049
18,GTATGTCA,0.155 ± 0.034
19,GAGCAGCC,-0.148 ± 0.048
20,AGCCGTAA,-0.13 ± 0.0034
21,CCTGCTAA,0.338 ± 0.033
22,GCGCACCA,-0.0144 ± 0.01
23,TCTAAACA,0.0667 ± 0.05
24,ACAGCCAG,-0.0384 ± 0.055
25,ATTCATCA,0.0685 ± 0.019

row,Sequence,PBM E-score of 8-mer
1,ACTCTTCC,-0.043 ± 0.011
2,AACACTGG,-0.059 ± 0.088
3,CGATGGAA,-0.0612 ± 0.022
4,CGGAAGGC,-0.00664 ± 0.04
5,ACGCGGCC,-0.0745 ± 0.03
6,GAAGACCA,-0.0463 ± 0.011
7,ATAAGAGC,-0.183 ± 0.025
8,GAGTAGAA,-0.208 ± 0.013
9,AGGTAGTA,-0.102 ± 0.005
10,ACGCAGCG,-0.0847 ± 0.052
11,CAGCCCGA,-0.215 ± 0.055
12,ATGCGACG,0.0226 ± 0.025
13,AGTCATTC,0.0179 ± 0.06
14,AGGAACAC,0.141 ± 0.0084
15,CTTACGAA,-0.0964 ± 0.046
16,GAGGGCAA,0.0275 ± 0.024
17,TACTGGCA,0.111 ± 0.034
18,AACCTACA,0.134 ± 0.012
19,CACCTAGA,0.324 ± 0.028
20,TACTCGGA,-0.187 ± 0.067
21,AAGAGGAT,-0.0795 ± 0.076
22,ACAAGATC,0.00917 ± 0.059
23,CTATGCAG,0.0415 ± 0.0051
24,AAAATTGT,-0.0113 ± 0.062
25,GACGTGCC,0.213 ± 0.018

row,Sequence,PBM E-score of 8-mer
1,TCCCTGCA,-0.162 ± 0.011
2,ATTAACGG,-0.167 ± 0.018
3,GTTGAGAA,0.217 ± 0.0097
4,AGGGGGTC,-0.25 ± 0.031
5,ATGGCCTA,-0.203 ± 0.011
6,GACCAATC,0.0215 ± 0.014
7,GTACTGCA,-0.118 ± 0.03
8,ACTGCTCT,-0.152 ± 0.0054
9,GTGTCAGA,0.3931 ± 0.00061
10,CCCGGGAG,-0.212 ± 0.0027
11,AATAGTGC,0.128 ± 0.038
12,CTACATCC,-0.0987 ± 0.0034
13,CATAAGTC,-0.19 ± 0.031
14,CAGTACAC,-0.0273 ± 0.034
15,CCCCAACC,-0.154 ± 0.094
16,GGACGTCC,-0.186 ± 0.014
17,GAAATGCC,-0.0296 ± 0.07
18,AGAAAGAC,-0.173 ± 0.0084
19,CAGAACAG,-0.265 ± 0.071
20,GATTTCGA,0.0762 ± 0.0093
21,AGCGGTGA,0.053 ± 0.09
22,ACTAAGAG,-0.175 ± 0.022
23,AGTAATAA,-0.221 ± 0.058
24,AGGCCGTA,-0.274 ± 0.029
25,CGCATGCA,-0.101 ± 0.0039

row,Sequence,PBM E-score of 8-mer
1,CAAGTAGG,0.0921 ± 0.02
2,GACCTCTA,-0.259 ± 0.07
3,AAACACGC,0.125 ± 0.0076
4,ACGTCGCG,0.181 ± 0.03
5,GTCATAAA,-0.0049 ± 0.031
6,GACGATCA,-0.244 ± 0.094
7,AACATCGC,0.0637 ± 0.016
8,GCTTTGGA,-0.0985 ± 0.026
9,CAACTCCA,0.0575 ± 0.041
10,AATTGGAT,-0.0858 ± 0.095
11,ATTAAAAT,-0.0591 ± 0.16
12,CTTATTCA,-0.00801 ± 0.053
13,TAATAAGA,-0.142 ± 0.073
14,CGGGACTC,-0.18 ± 0.045
15,ATCCCTGG,-0.0457 ± 0.025
16,CGTCGAGA,-0.0587 ± 0.027
17,AATAACTA,0.0446 ± 0.031
18,CGGAGTAA,-0.121 ± 0.0036
19,GACGTGGC,0.167 ± 0.049
20,AGAAATAT,0.0647 ± 0.097
21,AAAACATT,-0.0945 ± 0.013
22,CCATTAAG,-0.268 ± 0.021
23,GCAATGAC,-0.0287 ± 0.0011
24,TCCCACAA,-0.0709 ± 0.024
25,CGGTAGTC,-0.405 ± 0.034

row,Sequence,PBM E-score of 8-mer
1,GAAGTCTA,-0.228 ± 0.024
2,ACCAGGCG,0.175 ± 0.0061
3,ATGCAAGA,-0.329 ± 0.1
4,AGGATAAT,-0.1381 ± 0.0012
5,AGCATCGA,-0.142 ± 0.058
6,AACATCTT,-0.12 ± 0.07
7,TGTGCGAA,0.448 ± 0.0066
8,CTGCCCGC,-0.146 ± 0.041
9,GCACGGGA,-0.0981 ± 0.01
10,GACCTTTA,-0.207 ± 0.088
11,GAAGCGTA,-0.145 ± 0.051
12,CGGTTATA,-0.031 ± 0.032
13,AATCTATC,-0.00253 ± 0.044
14,AACTGGAT,0.0381 ± 0.023
15,ACTGAGGC,0.0455 ± 0.032
16,AATACTCC,-0.103 ± 0.0049
17,CAGTGCCC,-0.185 ± 0.073
18,CTTATCCC,-0.104 ± 0.028
19,CGTCGGGC,0.0223 ± 0.047
20,GAACTAAC,0.162 ± 0.014
21,GCCTCTAA,-0.0699 ± 0.027
22,CGATAACC,0.221 ± 0.032
23,CCTTTCCA,-0.0302 ± 0.05
24,ATCCATCA,-0.125 ± 0.087
25,GGTCAGAC,-0.225 ± 0.018

row,Sequence,PBM E-score of 8-mer
1,ATTTTGTC,0.194 ± 0.045
2,GGCGAGAC,0.231 ± 0.019
3,CAGTCGAA,-0.214 ± 0.037
4,AAGTTATT,-0.22 ± 0.052
5,ACGCTAAA,0.191 ± 0.064
6,GGCCATCA,-0.292 ± 0.044
7,ACCTTCAT,0.201 ± 0.039
8,GATCTGAA,-0.0563 ± 0.034
9,CCTAGGAA,-0.3269 ± 0.0029
10,ATAAAGTG,0.235 ± 0.088
11,AATGGAAT,-0.251 ± 0.029
12,CCTTTACG,-0.243 ± 0.017
13,CTGAAGCC,-0.175 ± 0.013
14,GATGTCTA,-0.212 ± 0.006
15,CAGTACGC,-0.151 ± 0.055
16,CTGACTCA,-0.0288 ± 0.013
17,ATAGTTTC,-0.139 ± 0.033
18,CAATGTGG,0.0718 ± 0.076
19,ACTAGATA,-0.12 ± 0.015

# Source: the supplement of paper PMC4166925
